Reference: PMC2902519, “Impairment of Protein Trafficking upon Overexpression and Mutation of Optineurin” (PLoS ONE, 2010)

B1: FLAG-tagged E50K optineurin (FLAG-OPTN E50K) (natural protein)
chain: not shown
notes: optineurin, human, with the glaucoma-associated mutation Glu50 to Lys; construct made as described in earlier work; both copies are written as this one molecule; also called E50K mutant; pTarget-FLAG-OPTN_(E50K); source: RPE (ARPE-19) cells, transiently transfected 16 h, in lysate
B2: FLAG-tagged L157A optineurin (FLAG-OPTN L157A) (natural protein)
chain: not shown
notes: optineurin, human, with the point mutation Leu157 to Ala in the leucine zipper ([…]); both copies are written as this one molecule; also called L157A mutant; pTarget-FLAG-OPTN_(L157A); source: RPE (ARPE-19) cells, transiently transfected 16 h, in lysate

Biological target: the molecule itself
Experiment: native gel or EMSA; native blue gel electrophoresis, data not shown; 420 kDa homo-hexamer

Row | Protein | stoichiometry N
1 | B1 | 6
2 | B2 | 6
